Source: ChEMBL document CHEMBL4888484, “Replenishing the malaria drug discovery pipeline: Screening and hit evaluation of the MMV Hit Generation Library 1 (HGL1) against asexual blood stage Plasmodium falciparum ,using a nano luciferase reporter read-out” (2022)
The campaign covered roughly 150,000 compounds. About 540 (0.36%) showed an effect of 50% or more. The list shows a part of the results.

The molecules below were run on Plasmodium falciparum (assay: Primary screen in NF54 nanoGlo assay, in single point, at 2uM, 72h; a lower Z score goes with more inhibition). Conditions: timepoint 72 hour.
Type: functional, Erythrocyte

| SMILES | % Inhibition [%] | Z score |
| --- | --- | --- |
| CCCOc1ccc(CCNC(=O)N2C[C@H]3C[C@H](O)[C@@H](O)C[C@H]3C2)cc1 | -22 | 2.32 |
| CN(C)c1ncc(CN[C@H]2CC(=O)N(C3CC3)C2)n1C | 5 | -0.55 |
| Cc1ccc(CNC(=O)[C@H]2CCCN(S(=O)(=O)c3ccc4c(c3)NC(=O)CO4)C2)o1 | 3 | -0.45 |
| C=CCOc1ccccc1CN1C[C@@H](n2cnnn2)C[C@H]1C(=O)NCc1ccc(C)cc1 | -10 | 1.72 |
| COC(=O)c1c(F)ccc(NC(=O)CC#N)c1C | -7 | 1.06 |
| C=CCC[C@@H](CN1CCCC1)Oc1ccc(OC)nn1 | 4 | -0.74 |
| COc1ccc(C[C@H]2CCOC3(CCN(C(=O)Nc4ccccc4)CC3)C2)cc1 | -12 | 1.73 |
| O=C(CCC1CCNCC1)NCc1ccc(Br)cc1 | 6 | -0.87 |
| COc1ccc(Nc2nnc(-c3ccc(NC(=O)C(=O)NCCCn4ccnc4)cc3)s2)cc1 | 66 | -7.06 |
| Cc1nc(-c2csc(S(=O)(=O)N3CCC[C@H](C(=O)Nc4ccc(C)c(F)c4)C3)c2)no1 | -9 | 1.04 |
| O=C(NC1CCCCC1)c1c(-c2ccccc2)n(Cc2cccs2)c(=O)n1CCN1CCOCC1 | -8 | 0.93 |
| Cc1n[nH]c(CNC(=O)[C@H]2CCC(=O)N(c3ccc(C)c(C)c3)C2)n1 | -1 | 0.22 |
| CC(=O)Nc1ccc(F)c(C(=O)N2CCn3c(Cc4ccccc4)nnc3C2)c1 | 5 | -0.91 |
| O=C(c1cccc(-n2cncn2)c1)N(C[C@H]1CCCO1)C1CCCC1 | -18 | 2.77 |
| CCN(Cc1nc2ccccc2c(=O)[nH]1)C(=O)c1ccco1 | -1 | 0.14 |
| CCn1cc(CN2CCc3nnc(Cc4cccnc4)n3CC2)cc1C#N | -4 | 0.57 |
| Clc1ccc(NC[C@@H]2CCCO2)nc1 | 1 | -0.09 |
| O=C(NCC1(c2cccc(F)c2)CCCCC1)C1CCNCC1 | -7 | 0.64 |
| CCc1nc(NCC(C)(C)S(C)(=O)=O)c2ccsc2n1 | -3 | 0.29 |
| CC1(C)CC(=O)N(C[C@H]2CCCO2)C1=O | -4 | 0.47 |
| COc1ccc(C)cc1S(=O)(=O)N1CCCC[C@H]1c1ccnn1C | -7 | 0.87 |

| SMILES | % Inhibition [%] | Z score |
| --- | --- | --- |
| COc1ccc(C(OC[C@@H](O)CN(C)C2CCCCC2)c2ccc(OC)cc2)cc1 | -8 | 1.31 |
| COc1cccc(C(=O)N2CC(S(=O)(=O)Nc3ccccc3)C2)n1 | -6 | 0.54 |
| CC1CCCN(CCOC(C)(C)C)C1CO (stereo unspecified) | -6 | 0.88 |
| Cc1nnc(CN(C)[C@H](CO)Cc2ccccc2)s1 | 19 | -2.39 |
| COCc1cc(NCc2cncn2CC(C)C)ncn1 | -7 | 1.33 |
| Cc1nc(N2CCOCC2)ccc1NC(=O)c1cn(-c2ccc(F)cc2)nn1 | -9 | 0.96 |
| O=C(NCc1ccc(N2CCCC2=O)cc1)Nc1ccc(Cl)c(Cl)c1 | 2 | -0.31 |
| COc1ccc2c(c1)OC[C@]1(CO)CN(Cc3c(F)cccc3Cl)C[C@H]21 | -9 | 1.32 |
| CC(NC(=O)NC1CCCNC1=O)c1ccc(N2CCOCC2)cc1 (stereo unspecified) | -1 | 0.14 |
| CCN(C(C)=O)c1nc2ccccc2n(CC(=O)Nc2ccccc2C(F)(F)F)c1=O | -7 | 1.14 |
| O=C1[C@@H]2C[C@@H](CN2C2CCCC2)Oc2ccccc2N1Cc1ccccc1 | 17 | -1.93 |
| Cc1cccc(-c2ncc(C(=O)N3CCN(C4CCCCC4)CC3)c(O)n2)c1 | -15 | 2.97 |
| O=C(c1cnn(-c2ccccc2)n1)N1CCC1 | -5 | 0.98 |
| C[C@H](O)C(=O)NC1CC(Cl)(Cl)C1 | -20 | 2.03 |
| Cc1cn2ccc(C(=O)NC(C)(C)[C@H](O)C(F)(F)F)cc2n1 | -7 | 1.25 |
| CN1CCCN(C(=O)C[C@H]2COCCN2Cc2cccc3nonc23)CC1 | -8 | 1.05 |
| C[C@H](c1ccccc1)n1cnc2c(cnc(=O)n2C)c1=O | -12 | 1.64 |
| Cc1cc(C#N)nc(N2C[C@H](c3ccccc3)C3(CCC3)C2)n1 | -22 | 2.16 |
| CN(C)c1cc(NC(=O)N2CCC3(CC2)C[C@H](O)CNC3=O)ccn1 | -2 | 0.21 |
| O=C(OC1CN(c2nc3ccccc3s2)C1)C1(c2ccccc2)CCOCC1 | -13 | 1.46 |
| CC1CC(CN2CCC(n3c(=O)[nH]c4cccnc43)CC2)CCO1 (stereo unspecified) | -7 | 0.82 |

| SMILES | % Inhibition [%] | Z score |
| --- | --- | --- |
| Cc1nc(C(=O)Nc2ccc(O[C@H]3CCOC3)cc2)nn1-c1ccccc1Cl | -17 | 2.61 |
| CC[C@H]1CCCCN1CCNC(=O)CCCn1ccnc1 | -13 | 1.08 |
| Cc1c[nH]c(C(=O)NC[C@H]2CC[C@H](CO)CC2)n1 | 2 | -0.4 |
| Cc1nc(C)c(C)c(N(C)CCc2c[nH]cn2)n1 | -5 | 0.56 |
| Cc1ccc2c(c1)c1c(n2C[C@@H](O)Cn2ccnc2)C(=O)CCC1 | -3 | 0.38 |
| Cc1nc(N(C)C)sc1CN1CCC(O)(C(F)(F)F)CC1 | -7 | 0.91 |
| Cc1ccc(-c2cc(C(=O)Nc3c(C(=O)c4ccccc4)oc4ccccc34)n[nH]2)c(O)c1C | -2 | 0.28 |
| Cc1nc(S(C)(=O)=O)nc2ccc(C(C)C)cc12 | -9 | 1.21 |
| COC(=O)c1cccc(NC(=O)Nc2ccccc2)c1CN1CCN(c2ccccc2)CC1 | -8 | 1.17 |
| CC(NC(=O)C(C)S(C)(=O)=O)c1ccc(-c2cccnc2)cc1 (stereo unspecified) | -8 | 0.8 |
| Cc1ccnc(O)c1C(=O)Nc1cc(-c2nccn2C)n[nH]1 | -7 | 1.39 |
| COc1ccc(N2C(=O)[C@@H]3[C@H](Cc4ccccc4)N[C@]4(C(=O)Nc5ccccc54)[C@@H]3C2=O)cc1 | 5 | -0.84 |
| Cc1cc(O[C@H]2CCN(C(=O)Nc3ccc(C)c(C)c3)C2)nc(C)n1 | -8 | 1.19 |
| O=C(NC(c1ccccc1)c1ccccc1)c1cn(CC2CCCCC2)nn1 | 3 | -0.41 |
| O=C(Cn1cccn1)N1CC(O)CC1c1ccc(C(F)(F)F)cc1 (stereo unspecified) | -11 | 1.25 |
| Cc1cn(C(C)c2ccccc2)nc1NC(=O)N1CCCC(O)C1 (stereo unspecified) | 10 | -1.23 |
| Cc1cc(C)c(C)c(OCc2nc(CN(C)C(=O)c3cccs3)cs2)c1 | -4 | 0.56 |
| COc1cccc(C(=O)N2CCC(CN3C[C@@H](C(=O)N4CCOCC4)CC3=O)CC2)c1C | -11 | 1.41 |
| COc1ccccc1N1CCN(c2nccn3nc(-c4ccccc4C)cc23)CC1 | -1 | 0.11 |
| C[C@@H]1COCCN(C(=O)Nc2ccccc2N2CCCC2=O)C1 | -2 | 0.38 |
| O=C(c1cccs1)N1CCC[C@H](Nc2ncnc3c2CCNCC3)C1 | -3 | 0.44 |

| SMILES | % Inhibition [%] | Z score |
| --- | --- | --- |
| O=C(CNC1CC(c2ccccc2)C1)NCc1ccco1 (stereo unspecified) | -8 | 1.01 |
| C#CCN(Cc1ccco1)C(=O)Cc1csc(-c2nnc[nH]2)n1 | -7 | 1.04 |
| Cc1ccc(NC(=O)Cn2nc(N3CCOCC3)c3ccccc3c2=O)cc1 | -4 | 0.65 |
| COc1cccc([C@@H]2CC(=O)c3c(nc4c(cnn4-c4ccc(C)cc4)c3N)C2)c1 | -10 | 1.27 |
| Cc1ccc(-c2cc(CN3CCOCC3)[nH]n2)o1 | 1 | -0.2 |
| Cc1ccc(C#N)c(N2C[C@@H]3OC(=O)N(CCc4cccc(Cl)c4)[C@@H]3C2)n1 | -9 | 1 |
| Cc1nsc(C)c1-c1noc(CC2CC(F)(F)C2)n1 | -11 | 1.11 |
| COC(=O)N[C@@H](C)C(=O)NCc1ccc2c(c1)nc(C)n2C | -12 | 1.69 |
| Cc1ccc2[nH]c(-c3ccccc3NC(=O)CC3CCCC3)nc2c1 | -6 | 0.79 |
| COCCNc1nc(-c2ccc(F)cc2F)cc(-c2c(C)noc2C)n1 | 5 | -0.92 |
| CC1(C)CC(N2C(=O)CCC2CCNCc2cc3c(cc2Cl)OCO3)CCO1 (stereo unspecified) | -5 | 0.69 |
| Cn1nc(-c2nc(-c3ccco3)nn2C2CCCCC2)ccc1=O | -16 | 2.41 |
| O=S(=O)(c1ccc(Cl)s1)N1CCc2nc(-c3ccc(Cl)cc3)ncc2C1 | -11 | 1.78 |
| CC1CCC(O)C(C2CCCN2C(=O)Nc2ccsc2Cl)C1 (stereo unspecified) | -2 | 0.3 |
| O=C(CS(=O)(=O)c1ccccc1Cl)NC[C@H]1CCCO1 | -9 | 1.46 |
| CC(=O)N1CCN(C(=O)c2c(C(F)(F)F)nn(C(C)C)c2C)CC1 | -4 | 0.68 |
| Cc1cccc(C(=O)NCCOCC(F)F)c1O | 1 | -0.25 |
| Clc1c2ccccc2c(-c2nc(-c3ccc(Br)cc3)c(-c3ccc(Br)cc3)[nH]2)c2ccccc12 | -18 | 1.95 |
| Cc1ccc(OCCc2cnc3c(C#N)cnn3c2)c(Cl)c1 | 7 | -0.99 |
| CCNC(=O)N1CCC(CCOC)(NC(=O)NCc2ccccc2)CC1 | -1 | 0.21 |
